Experimental data from PubChem BioAssay AID504466 (National Center for Advancing Translational Sciences (NCATS), 2011).
Among all 330,000 compounds or so, about 4,200 (1.3%) were called active. The inconclusive results got no clear call from the source; some entries with a clear call stand among them for comparison. Calls come from the whole dose curve; as a rule, active = well fitted activation curve with a large enough effect; inconclusive = small, poorly fitted or top-dose-only effect; inactive = no such curve, though single readings can be large or run the other way. Potencies of inconclusive entries are doubtful fits and often do not repeat.

Test: qHTS screen for small molecules that induce genotoxicity in human embryonic kidney (HEK293T) cells expressing luciferase-tagged ELG1; note: nearly all actives have a fitted effect of over 60% in size
Settings: HEK293T ELG1-luciferase reporter, luminescence, 16 h; series mostly up to 46 µM
Outline: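 Quantitative HTS format in 1536-well plates. HEK293T ELG1-luciferase reporter cells receive test compound and are incubated 16 hr at 37 °C, 5% CO2; ONE-Glo added, 30 min room temperature, then luminescence read.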
Potency is the fitted concentration of half-maximal effect; tags give direction and shape of the fitted curve.

Row | Structure (SMILES) | Potency
1 | CCc1ccc(OCCOCC(O)CN2CCN(Cc3ccc(Cl)cc3)CC2)cc1 (centres undefined) | inactive
2 | Cc1ccc(C(=O)/C=C/Nc2cccc([N+](=O)[O-])c2)o1 | inconclusive: 9.2 µM [activator, partial curve]
3 | COc1ccc(Nc2ncc(F)c(N3CCOCC3)n2)cc1 | inconclusive: 0.411 µM [activator, full curve, poor fit]
4 | CCOC(=O)C1CCCN(CC(=O)Nc2nc(-c3ccccc3)cs2)C1 (centres undefined) | inactive
5 | O=C(Nc1ccc(N2CCCC(O)C2)cc1)c1snc2c(=O)[nH]cnc12 (centres undefined) | inconclusive: 18.4 µM [activator, partial curve]
6 | CCc1cccc2c(C(=O)COC(=O)c3nccnc3N)c[nH]c12 | inconclusive: 16.4 µM [activator, partial curve]
7 | Cc1c(C(=O)OC(C)C)[nH]c2c1C(=O)CCC2 | inconclusive: 32.6 µM [activator, partial curve, poor fit]
8 | Cc1c(C(=O)Nc2cc(F)ccc2F)sc2nc3n(c(=O)c12)CCCCC3 | active: 16.4 µM
9 | CN(C(=O)Cn1cc(C(F)(F)F)cc(Cl)c1=O)C1CCS(=O)(=O)C1 (centres undefined) | inactive
10 | O=C(CSc1ccccn1)Nc1ccc2ccccc2c1 | inconclusive: 6.51 µM [activator, partial curve]
11 | CC(=O)Nc1ccc(S(=O)(=O)NNc2cccc(C)c2)cc1 | inconclusive: 20.6 µM [activator, partial curve, poor fit]
12 | CCCCC(=O)Nc1cnc(NC(=O)c2cccs2)cc1C | inconclusive: 9.2 µM [activator, partial curve]
13 | CCCNC(=O)c1oc2ccc3c(c2c1C)C(=O)CC(C)(C)O3 | inconclusive: 2.31 µM [activator, full curve]
14 | O=C(NC(=S)Nc1ccc(CN2CCOCC2)cc1)c1ccco1 | inconclusive: 18.3 µM [activator, partial curve, poor fit]
15 | Cn1cc(/C=N/NC(=O)c2cc3cc(Br)ccc3o2)c2ccccc21 | inactive
16 | COc1ccccc1NC(=O)c1ccc(COc2ccc3c(c2)CCC3)cc1 | inactive
17 | Cc1ccc(/C(N)=N/OC(=O)COc2ccccc2Cl)cc1 | active: 23.1 µM
18 | C=C(C)COc1ccc(-c2ncncc2Oc2ccc(OC)cc2)c(O)c1 | inconclusive: 29.1 µM [activator, partial curve, poor fit]
19 | Cc1ccc(NC(=O)/C(Cl)=C/c2ccccc2)cc1C | inconclusive: 1.3 µM [activator, full curve]
20 | CC1CC(C)(C)NC(=S)N1CCCC(=O)Nc1ccc2c(c1)OCCO2 (centres undefined) | inconclusive: 23.1 µM [activator, partial curve, poor fit]
21 | CC(=O)N=c1sc2ccccc2n1C | inactive
22 | COc1ccc(NS(=O)(=O)c2cccc(C(=O)NNC(=O)c3ccccc3O)c2)cc1 | inconclusive: 29.1 µM [activator, partial curve, poor fit]
23 | O=C(Nc1nccs1)c1sc2ccccc2c1Cl | inconclusive: 0.411 µM [activator, full curve, poor fit]
24 | CCN1C(=O)c2cccc3c(S(=O)(=O)Nc4ccccc4OC)ccc1c23 | inconclusive: 14.6 µM [activator, partial curve, poor fit]
25 | CCc1cc(=O)oc2cc(OCC(=O)NCC3CCC(C(=O)O)CC3)ccc12 (centres undefined) | inactive

Row | Structure (SMILES) | Potency
26 | S=C(NCCc1ccccn1)NC1CCCCC1 | inconclusive: 14.6 µM [activator, partial curve, poor fit]
27 | Cc1ccc(C(=O)NCC(=O)Nc2cc(C)ccn2)cc1 | inconclusive: 20.6 µM [activator, partial curve, poor fit]
28 | CCOC(=O)CSc1nc2ccccc2c(=O)n1CC1CCC(C(=O)NCc2ccco2)CC1 (centres undefined) | inconclusive: 29.1 µM [activator, partial curve, poor fit]
29 | COc1ccc(/[N+]([O-])=C/c2ccco2)cc1 | inconclusive: 25.9 µM [activator, partial curve, poor fit]
30 | C(=C/c1nccc2c1[nH]c1ccccc12)/c1ccc2c(c1)OCO2 | inconclusive: 18.3 µM [activator, partial curve, poor fit]
31 | CC(C)(C)CN1CCN(Cc2cc3ccccc3[nH]2)CC1CCO (centres undefined) | inactive
32 | CCCN1C(=O)c2cc(C(=O)NC3CCCCCC3)ccc2C1O (centres undefined) | active: 9.2 µM
33 | COc1ccc(CCNC(=O)COC(=O)/C=C/c2ccc3c(c2)OCO3)cc1 | inactive
34 | c1cnc2ccc(-c3ccc4ncccc4c3)cc2c1 | inconclusive: 0.73 µM [activator, full curve]
35 | c1csc(CSc2nnc3sc4ccccc4n23)c1 | inconclusive: 10.3 µM [activator, partial curve]
36 | CN(C(=O)COC(=O)c1ccc(-c2ccc(O)cc2)cc1)C1CCS(=O)(=O)C1 (centres undefined) | inconclusive: 20.6 µM [activator, single point]
37 | O=C(Cn1nc(-c2ccccc2)oc1=O)OCC(=O)c1ccccc1 | inactive
38 | O=C(CSc1nnc(NC(=O)c2cccc(Cl)c2)s1)NCC1CCCO1 (centres undefined) | inconclusive: 25.9 µM [activator, single point]
39 | Cc1ccc(-n2nnc(-c3nccn3C)n2)cc1 | active: 1.83 µM
40 | O=C(CSc1nnnn1-c1ccccc1)c1cc2ccccc2oc1=O | inconclusive: 25.9 µM [activator, single point]
41 | COc1ccc(NC(=O)CSc2ccc3nnc(-c4ccccn4)n3n2)cc1 | inactive
42 | COc1ccc(N=Cc2c(O)[nH]c3ccccc23)cc1OC | active: 14.6 µM
43 | CC(C(=O)Nc1ccc(F)c(F)c1)N1CCN(C)CC1 (centres undefined) | inactive
44 | COc1ccc2c(c1OC)C(=O)N(c1cccc(C)c1)C2=O | inconclusive: 18.4 µM [activator, partial curve, poor fit]
45 | Fc1ccc(NC(=S)N/N=C/c2cccc(Br)c2)c(F)c1 | inconclusive: 25.9 µM [activator, partial curve, poor fit]
46 | O=C(COc1ccccc1)Nc1ccc(Cl)cc1Cl | inconclusive: 10.3 µM [activator, partial curve]
47 | COc1ccc(-c2cc(C(=O)Nc3ccccc3F)on2)cc1 | inconclusive: 3.66 µM [activator, single point]
48 | CC1(C)CC=C(NNC(=O)c2cccnc2)C(=O)C1 | inactive
49 | CCc1ccc(/C=C2/C(=O)N(C)C(=S)N2CC(=O)OC)s1 | inactive
50 | Cc1ccc(OCc2cc(C(=O)N3CCN(c4ccccc4)CC3)no2)cc1C | active: 3.66 µM

Row | Structure (SMILES) | Potency
51 | CN=c1c([N+](=O)[O-])nn(-c2ccc3c(c2)OCCO3)n1O | inconclusive: 13 µM [activator, partial curve, poor fit]
52 | CC(=O)c1ccc(NC(=O)c2cc(Cl)sc2Cl)cc1 | inconclusive: 9.2 µM [activator, partial curve]
53 | O=c1oc(Nc2ccc(F)cc2)nc2ccccc12 | inconclusive: 18.4 µM [activator, partial curve]
54 | CC(C)C(=O)Nc1nc2ccc(S(C)(=O)=O)cc2s1 | inactive
55 | Nc1nc2ccccc2n1C(=O)c1cccs1 | inconclusive: 0.631 µM [activator, full curve, poor fit]
56 | Cc1ccccc1-c1nnc(CN2CCC(C)CC2)o1 | inconclusive: 23.1 µM [activator, partial curve, poor fit]
57 | Nc1scc(-c2ccncc2)c1Cl | inconclusive: 32.6 µM [activator, partial curve, poor fit]
58 | CC(C)c1ccc(/C=N/N2CCCCC2)cc1 | inconclusive: 5.01 µM [activator, partial curve]
59 | CCN(C(C)=O)c1nnc(CSc2nc3ccccc3s2)s1 | active: 8.2 µM
60 | Cc1ccnc(Nc2nc3ccccc3s2)n1 | active: 2.06 µM
61 | C/C(=N\NC(=O)c1ccncc1)c1cccs1 | inconclusive: 16.4 µM [activator, partial curve, poor fit]
62 | COC(=O)c1sc(NC(=S)NC(=O)c2ccccc2Cl)nc1C | inconclusive: 18.4 µM [activator, single point]
63 | COc1ccc(-c2noc(CCC(=O)Nc3ccc(C)c(C)c3)n2)cc1 | inconclusive: 23.1 µM [activator, single point]
64 | COc1ccc(-c2nc(-c3cccnc3)no2)cc1 | inconclusive: 2.31 µM [activator, full curve]
65 | COc1cc2c(cc1OC)-c1cc(Nc3cccc(F)c3)nc(=O)n1CC2 | inactive
66 | Oc1cc(O)cc(/C=C/c2ccc(O)c(O)c2)c1 | active: 5.17 µM
67 | O=C(/C=C/c1cccs1)N1CCN(c2ccc(O)cc2)CC1 | inactive
68 | COc1ccc(-n2nc(C(=O)NCC(=O)NCc3ccc(F)cc3)c3ccccc3c2=O)cc1 | inactive
69 | CCCC(=O)Nc1ccc(NC(=O)c2ccccc2)nc1 | inconclusive: 1.83 µM [activator, full curve]
70 | O=C(CC(Nc1ccccc1Cl)C(=O)OCC(=O)c1cccs1)c1ccccc1 (centres undefined) | inconclusive: 13 µM [activator, partial curve]
71 | Oc1ccccc1/C=N/Nc1nccnc1Cl | active: 13 µM
72 | CC1CCN(CCCNC(=O)c2cc3c(=O)n(C)c4ccccc4c3n2C)CC1 | inconclusive: 18.4 µM [activator, partial curve, poor fit]
73 | O=C1/C(=C\c2ccc(O)c(O)c2)N=C2CCCCCN12 | inconclusive: 20.6 µM [activator, single point]
74 | Cc1c(C=O)c2cc(OCc3ccccc3)ccc2n1C | inconclusive: 20.6 µM [activator, partial curve]
